Measured values as given in publication PMC4336329 (PLoS ONE, 2015).
About 2,200 (0.71%) of roughly 310,000 compounds showed an effect of 50% or more. Effects have a minus sign here. The list shows a part of the results.

target: human ether-à-go-go-related gene (hERG) potassium channel (human, UniProt Q12809); experiment: primary screen, population patch clamp on CHO cells stably expressing hERG
Sequence (Q12809 whole entry, looked up): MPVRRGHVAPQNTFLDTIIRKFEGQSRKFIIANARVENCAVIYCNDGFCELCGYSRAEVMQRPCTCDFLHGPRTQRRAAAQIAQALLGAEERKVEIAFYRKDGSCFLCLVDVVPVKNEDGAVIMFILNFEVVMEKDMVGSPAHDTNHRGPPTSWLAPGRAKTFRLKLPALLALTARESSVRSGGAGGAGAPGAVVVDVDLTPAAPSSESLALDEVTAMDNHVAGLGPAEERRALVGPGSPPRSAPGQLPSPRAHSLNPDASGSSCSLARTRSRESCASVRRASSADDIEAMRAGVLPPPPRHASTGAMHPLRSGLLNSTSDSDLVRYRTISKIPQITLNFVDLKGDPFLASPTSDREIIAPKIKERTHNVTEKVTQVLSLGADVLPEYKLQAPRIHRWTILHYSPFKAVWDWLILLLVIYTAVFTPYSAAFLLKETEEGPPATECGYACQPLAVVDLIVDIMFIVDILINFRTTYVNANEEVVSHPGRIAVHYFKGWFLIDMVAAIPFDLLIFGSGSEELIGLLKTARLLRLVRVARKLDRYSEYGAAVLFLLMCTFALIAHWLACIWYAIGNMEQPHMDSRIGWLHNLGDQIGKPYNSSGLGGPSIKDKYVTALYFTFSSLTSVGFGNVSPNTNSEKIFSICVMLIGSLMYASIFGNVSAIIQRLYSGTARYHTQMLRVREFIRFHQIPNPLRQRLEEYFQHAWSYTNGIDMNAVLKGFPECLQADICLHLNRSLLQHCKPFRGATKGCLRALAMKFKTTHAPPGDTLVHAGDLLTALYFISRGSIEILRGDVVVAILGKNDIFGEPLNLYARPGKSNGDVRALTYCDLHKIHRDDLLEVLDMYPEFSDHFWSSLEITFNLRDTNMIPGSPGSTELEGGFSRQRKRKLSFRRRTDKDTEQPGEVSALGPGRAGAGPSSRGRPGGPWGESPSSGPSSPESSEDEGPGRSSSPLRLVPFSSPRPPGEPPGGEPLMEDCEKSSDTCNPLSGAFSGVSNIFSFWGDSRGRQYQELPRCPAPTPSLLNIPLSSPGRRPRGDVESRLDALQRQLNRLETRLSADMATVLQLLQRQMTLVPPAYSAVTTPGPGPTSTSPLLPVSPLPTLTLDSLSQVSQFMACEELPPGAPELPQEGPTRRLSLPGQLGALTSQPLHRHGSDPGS

Row | SMILES | hERG current change (%, negative = inhibition) at 1uM
1 | CC(=O)Nc1cccc(C(=O)OCc2csc(CC(=O)Nc3ccccc3C)n2)c1 | -1.62%
2 | O=C(COC(=O)C1CC1)Nc1ccc(OC(F)F)cc1 | -6.55%
3 | CCOC(=O)C(NCc1ccc(F)cc1)(NC(=O)c1ccccc1)C(F)(F)F (stereo not drawn) | 5.41%
4 | Cc1nnc(NC(=O)c2cc(-c3ccncc3)nc3c(C)cccc23)s1 | 10.4%
5 | CCN(CC)c1ccc(CNc2nc3ccccc3n2CCN2CCCCC2)cc1 | -18%
6 | CC(=O)c1ccc(OC(=O)c2ccc(Br)o2)cc1 | 0.133%
7 | O=C(CSc1nnc2ccccn12)NCCc1ccc(Cl)cc1 | 2.04%
8 | CCOc1ccc(C(C(=O)NC2CCCC2)N(C(=O)c2snc(C(N)=O)c2N)C2CCCC2)cc1 (stereo not drawn) | -0.169%
9 | O=S(=O)(c1ccccc1)c1nc(-c2ccc(F)cc2)oc1NCC1CCCO1 (stereo not drawn) | 8.29%
10 | CN1CCN(S(=O)(=O)c2ccc(NC(=O)COc3ccccc3)cc2)CC1 | 20.4%
11 | O=C(c1ccc(-c2cccc(Cl)c2Cl)o1)N1CCOCC1 | 1.86%
12 | CNc1nc(CCN2C(=O)c3ccccc3C2=O)cs1 | 11.6%
13 | O=C(CSc1n[nH]c(=O)n1Cc1ccco1)Nc1ccccc1Cl | 6.62%
14 | CCCCSc1nc2sc3c(c2c(=O)[nH]1)CCC3 | -1.1%
15 | CCOC(=O)C1(CCOc2ccccc2)CCN(Cc2cccc(-n3cccn3)c2)CC1 | -68.5%
16 | COC(=O)c1ccc(NC(=O)CSc2ccc(-c3ccccn3)nn2)cc1 | 15.6%
17 | CNC(=O)C(=O)NCC(c1cccs1)S(=O)(=O)c1ccc(F)cc1 (stereo not drawn) | 7.43%
18 | CC(C)CN(C(=O)COC(=O)Cc1c[nH]c2ccccc12)c1c(N)n(Cc2ccccc2)c(=O)[nH]c1=O | 13%
19 | COc1ccc(-c2cc(C(=O)NC3CCCC3)c3ccccc3n2)cc1 | 6.47%
20 | CCc1ccc(N(C(C)=O)C2C=CS(=O)(=O)C2)cc1 (stereo not drawn) | 6.06%
21 | Cc1cccc(C)c1OCC(=O)OCC(=O)c1ccc2c(c1)NC(=O)CO2 | 5.24%
22 | Cc1ccc(S(=O)(=O)NCCC(=O)Nc2cccc(S(N)(=O)=O)c2)cc1C | 12.5%
23 | CCN(Cc1ccccc1)C(c1cc2ccc(C)cc2[nH]c1=O)c1nnnn1CCOC (stereo not drawn) | 12.2%

Row | SMILES | hERG current change (%, negative = inhibition) at 1uM
24 | Cc1ccc(Nc2nc3ccccc3nc2-n2nc(C)cc2C)cc1 | 7.45%
25 | CCn1c(CNC(=O)c2cccc(C)c2)nnc1SCC(=O)N1CCOCC1 | 11.3%
26 | COc1ccc(-n2nc(C(=O)O)cc2-c2ccccc2)cc1 | 12.8%
27 | CN(CC(=O)Nc1ccccc1C(F)(F)F)C(=O)CSc1nnnn1C | 17.1%
28 | CC(C)n1c(/N=C/c2c[nH]c3ccccc23)nc2ccccc21 | 1.01%
29 | CCc1ccc(N2C(=O)Nc3ccc(Br)cc3C2(O)C(=O)NCCN(C)C)cc1 (stereo not drawn) | 6.27%
30 | Nc1ccccc1S(N)(=O)=O | 13.4%
31 | O=C(/C=C/c1ccccc1)NCC(=O)N/N=C/c1ccccc1[N+](=O)[O-] | 2.81%
32 | COCCCNC(=S)N1CCN(C(c2ccccc2)c2ccccc2)CC1 | 8.26%
33 | CCOC(=O)c1ccc(NC(=O)CCCN2C(=O)NC3(CCCC3)C2=O)cc1 | 6.26%
34 | CC(C)CNS(=O)(=O)c1ccc(S(=O)(=O)N2CCN(CCC#N)CC2)cc1 | 10.3%
35 | NC(=S)Cc1nc(-c2ccc(Cl)cc2)cs1 | 8.82%
36 | CSCC[C@H](Nc1ncnc2sc(C)c(C)c12)C(=O)O | 7.62%
37 | CCN(CCCNC(=O)CCn1c(=O)[nH]c2ccccc2c1=O)c1ccccc1 | 13.6%
38 | COc1cccc(-c2nnc3n2N=C(c2cccc(Br)c2)CS3)c1 | 4.8%
39 | Cl.Oc1ccc(C2=CCNCC2)cc1O | 10.3%
40 | Cc1cccc(/C=N/NC(=O)Cn2nc(C)cc2C)n1 | 11%
41 | Cc1nn(Cc2ccccc2)c(C)c1C(=O)N1CCN(S(=O)(=O)/C=C/c2ccccc2)CC1 | 7.19%
42 | Cn1cc([N+](=O)[O-])c(C(=O)Nc2cnn(Cc3ccc(F)cc3)c2)n1 | 5.82%
43 | COC(=O)c1[nH]c2c(c1C)C(=O)CC(c1ccccc1)C2 (stereo not drawn) | 9.13%
44 | CCOc1ccc(NC(=O)Nc2cc(C(=O)O)ccc2N2CC3CC(C2)c2cccc(=O)n2C3)cc1 (stereo not drawn) | 12.6%
45 | CCn1cc(CN2CCCC(CO)(Cc3cccc(Cl)c3)C2)cn1 (stereo not drawn) | 9.58%
